Data from article PMC4336329 (PLoS ONE, 2015).
Out of some 310,000 compounds screened, about 2,200 (0.71%) showed an effect of 50% or more. Effects have a minus sign here. The list shows a part of the results.

What follows are compounds tested against human ether-à-go-go-related gene (hERG) potassium channel (human, UniProt Q12809) (assay: primary screen, population patch clamp on CHO cells stably expressing hERG).
human ether-à-go-go-related gene (hERG) potassium channel, sequence (Q12809 whole entry, looked up): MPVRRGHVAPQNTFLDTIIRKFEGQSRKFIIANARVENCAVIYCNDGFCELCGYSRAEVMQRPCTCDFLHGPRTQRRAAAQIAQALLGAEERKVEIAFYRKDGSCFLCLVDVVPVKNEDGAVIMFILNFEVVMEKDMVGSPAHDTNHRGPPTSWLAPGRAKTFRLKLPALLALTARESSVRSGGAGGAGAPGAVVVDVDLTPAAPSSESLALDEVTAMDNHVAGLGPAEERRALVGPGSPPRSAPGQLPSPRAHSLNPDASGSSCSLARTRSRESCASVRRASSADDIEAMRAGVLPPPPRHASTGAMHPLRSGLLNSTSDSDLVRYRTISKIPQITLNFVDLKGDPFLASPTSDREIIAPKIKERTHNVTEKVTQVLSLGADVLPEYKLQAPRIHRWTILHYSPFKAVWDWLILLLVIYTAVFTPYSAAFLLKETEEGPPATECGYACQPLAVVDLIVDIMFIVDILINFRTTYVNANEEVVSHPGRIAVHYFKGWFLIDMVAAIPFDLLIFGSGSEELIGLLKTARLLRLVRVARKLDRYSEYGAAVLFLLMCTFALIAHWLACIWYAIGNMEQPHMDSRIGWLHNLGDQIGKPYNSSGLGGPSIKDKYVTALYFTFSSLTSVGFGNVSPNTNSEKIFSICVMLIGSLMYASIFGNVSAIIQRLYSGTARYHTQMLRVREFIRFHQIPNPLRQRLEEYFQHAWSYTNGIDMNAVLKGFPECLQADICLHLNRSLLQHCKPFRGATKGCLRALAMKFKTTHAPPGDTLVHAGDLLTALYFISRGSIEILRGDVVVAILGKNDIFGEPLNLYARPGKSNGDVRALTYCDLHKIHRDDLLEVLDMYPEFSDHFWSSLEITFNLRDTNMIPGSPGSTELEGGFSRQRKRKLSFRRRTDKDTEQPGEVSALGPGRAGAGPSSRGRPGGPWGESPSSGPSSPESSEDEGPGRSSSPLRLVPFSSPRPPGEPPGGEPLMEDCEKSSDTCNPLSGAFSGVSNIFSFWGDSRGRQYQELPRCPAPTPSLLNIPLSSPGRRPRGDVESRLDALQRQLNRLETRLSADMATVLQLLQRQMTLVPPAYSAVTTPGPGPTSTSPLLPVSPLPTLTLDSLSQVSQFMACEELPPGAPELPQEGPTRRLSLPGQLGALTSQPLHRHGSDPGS

| SMILES | hERG current change (%, negative = inhibition) at 1uM [%] |
| --- | --- |
| COc1ccc(CCNc2nc(-c3cccnc3)nc3ccccc23)cc1OC | 9.94 |
| COc1ccc(CN2CCC(Oc3ccc(C(=O)N4CCCC4)cc3)CC2)c(F)c1 | -22.8 |
| CNC(=O)c1cc2c(s1)-c1ccccc1CC2 | 3.26 |
| CCc1ccc(OCC(=O)NC(=S)Nc2ccc(Br)c(C)n2)cc1 | 4.44 |
| O=C(CSc1ccc(-c2cccnc2)nn1)Nc1ccccc1F | 5.21 |
| O=S(=O)(Nc1ccc(N2CCOCC2)cc1)c1c(F)cc(F)cc1Br | 14.2 |
| COc1cc(OC)c(-c2nnc3n(CCc4ccccc4)c(=O)c4ccccc4n23)cc1OC | 8.75 |
| COc1ccc(Cc2n[nH]c(=S)n2N)cc1OC | 12.1 |
| Cc1cccc(NC(=O)C(C)Oc2ccccc2C)n1 (centres unmarked) | 6.51 |
| COc1ccc(/C=N/Nc2cc(C)nc(-n3nc(C)cc3C)n2)c(OC)c1 | 8.96 |
| CC1CC(C)CN(C2CCN(Cc3cccnc3)CC2)C1.O=C(O)C(=O)O (centres unmarked) | 12.8 |
| Cc1cc(C(=O)COC(=O)CCc2nc3ccccc3c(=O)[nH]2)c(C)n1CC1CCCO1 (centres unmarked) | 17.4 |
| Cc1ccc(S(=O)(=O)N(CC(=O)N=Nc2c(O)[nH]c3ccccc23)c2cccc(C)c2)cc1 | 1.25 |
| CCC(=O)Nc1ccccc1N1CCN(c2ccc(F)cc2)CC1 | 14.6 |
| Cc1ccc(S(=O)(=O)N(CC(O)CN2CCCCC2)c2ccccc2)cc1.Cl (centres unmarked) | -60.5 |
| CC(=O)Nc1ccc(Cc2ccc3[nH]c(=O)cc(C)c3c2)cc1 | 7.97 |
| Cc1cc(-c2nn(C)c(=O)c3ccccc23)ccc1CNC(=O)NC1CCCCC1 | 6.86 |
| O=C(COC(=O)CCOc1ccccc1)NCCc1ccccc1 | 14.9 |
| CCc1nn(C(C)C(=O)N2CCN(Cc3ccccc3)CC2)c(=O)c2cc3occc3n12 (centres unmarked) | -14.1 |
| CCOC(=O)C1(CCc2ccccc2)CCN(C(=O)C(C)n2cncn2)CC1 (centres unmarked) | -6.83 |
| CCOC(=O)c1[nH]c(C)c(/C(O)=C2\C(=O)C(=O)N(CCCN3CCOCC3)C2c2cccs2)c1C (centres unmarked) | 0.476 |
| COc1ccc(Cl)cc1NC(=S)NC1CCCC1 | 16.6 |

| SMILES | hERG current change (%, negative = inhibition) at 1uM [%] |
| --- | --- |
| C=CCn1c(CSc2ccccc2[N+](=O)[O-])n[nH]c1=S | 12.8 |
| O=c1nc(NC2CCCC2)ccn1Cc1cccc(Br)c1 | 1.11 |
| NC(=O)c1ccc2nc(-c3ccccc3)c(-c3ccccc3)nc2c1 | 2.37 |
| C=CCNC(=S)NC1CC(C)(C)NC(C)(C)C1 | -5.02 |
| CC(=O)Nc1ccc(S(=O)(=O)N2CCc3cc4c(cc3C2C)OCCCO4)cc1 (centres unmarked) | 5.12 |
| O=c1c2c(nc3nc(NCc4cccc(Cl)c4)[nH]n13)CCC2 | 10.3 |
| O=C(CC(c1ccccc1)(c1ccccc1)c1ccccc1)N[C@@H](Cc1ccccc1)C(=O)O | 14.7 |
| CCCCNC(=O)COc1ccccc1C(=O)c1cc(C#N)c(=O)n(CCOC)c1 | -3.15 |
| O=C(COc1cccc(Cl)c1)Nc1ccc2c(c1)CCC2 | 3.64 |
| COc1ccc(C(=O)COC(=O)C(C(C)C)N2C(=O)C3C4C=CC(C4)C3C2=O)cc1 (centres unmarked) | 8.56 |
| COc1cccc(OCc2nnc3n2N=C(c2ccccc2)C(CC(=O)O)S3)c1 (centres unmarked) | 19.6 |
| Cc1cccc(-n2ncc3c(NCc4ccccn4)ncnc32)c1 | -1 |
| C=CCn1c(SCC(=O)NC(=O)NCCC)nnc1C1CCCCC1 | 12.4 |
| CCN1CCN(C(=O)c2cc3c(OC)c(OC)c(OC)cc3[nH]2)CC1 | 27.8 |
| FC(F)(F)c1nnc2c(Sc3ccccc3)nc3ccccc3n12 | 8 |
| N#Cc1ccc(C(=O)OCC(=O)N2CCOCC2)cc1 | 15.4 |
| CC(CCc1ccccc1)NC(=O)CCNS(=O)(=O)c1ccccc1C(F)(F)F (centres unmarked) | 16.2 |
| Cc1cc(OCC(=O)Nn2cnnc2)ccc1Br | 8.67 |
| O=C1COc2cc(S(=O)(=O)CCC(=O)N3CCCCC3)c(Cl)cc2N1 | 4.22 |
| O=C(c1cc2cc(Cl)ccc2oc1=O)N1CCCCCCC1 | 6.39 |
| Cc1cc(C)c(S(=O)(=O)N(C2=NCCS2)S(=O)(=O)c2c(C)cc(C)cc2C)c(C)c1 | 6.55 |
| O=C(O)CCc1ccc(S(=O)(=O)Nc2ccc(OCc3ccccc3)cc2)cc1 | 8.72 |
